About 2,200 (0.71%) of roughly 310,000 compounds showed an effect of 50% or more. The effect is printed as a negative number. The list shows a part of the results.
Each molecule was assayed against human ether-à-go-go-related gene (hERG) potassium channel (human, UniProt Q12809) (assay: primary screen, population patch clamp on CHO cells stably expressing hERG).
Chain of human ether-à-go-go-related gene (hERG) potassium channel (Q12809 whole entry, looked up): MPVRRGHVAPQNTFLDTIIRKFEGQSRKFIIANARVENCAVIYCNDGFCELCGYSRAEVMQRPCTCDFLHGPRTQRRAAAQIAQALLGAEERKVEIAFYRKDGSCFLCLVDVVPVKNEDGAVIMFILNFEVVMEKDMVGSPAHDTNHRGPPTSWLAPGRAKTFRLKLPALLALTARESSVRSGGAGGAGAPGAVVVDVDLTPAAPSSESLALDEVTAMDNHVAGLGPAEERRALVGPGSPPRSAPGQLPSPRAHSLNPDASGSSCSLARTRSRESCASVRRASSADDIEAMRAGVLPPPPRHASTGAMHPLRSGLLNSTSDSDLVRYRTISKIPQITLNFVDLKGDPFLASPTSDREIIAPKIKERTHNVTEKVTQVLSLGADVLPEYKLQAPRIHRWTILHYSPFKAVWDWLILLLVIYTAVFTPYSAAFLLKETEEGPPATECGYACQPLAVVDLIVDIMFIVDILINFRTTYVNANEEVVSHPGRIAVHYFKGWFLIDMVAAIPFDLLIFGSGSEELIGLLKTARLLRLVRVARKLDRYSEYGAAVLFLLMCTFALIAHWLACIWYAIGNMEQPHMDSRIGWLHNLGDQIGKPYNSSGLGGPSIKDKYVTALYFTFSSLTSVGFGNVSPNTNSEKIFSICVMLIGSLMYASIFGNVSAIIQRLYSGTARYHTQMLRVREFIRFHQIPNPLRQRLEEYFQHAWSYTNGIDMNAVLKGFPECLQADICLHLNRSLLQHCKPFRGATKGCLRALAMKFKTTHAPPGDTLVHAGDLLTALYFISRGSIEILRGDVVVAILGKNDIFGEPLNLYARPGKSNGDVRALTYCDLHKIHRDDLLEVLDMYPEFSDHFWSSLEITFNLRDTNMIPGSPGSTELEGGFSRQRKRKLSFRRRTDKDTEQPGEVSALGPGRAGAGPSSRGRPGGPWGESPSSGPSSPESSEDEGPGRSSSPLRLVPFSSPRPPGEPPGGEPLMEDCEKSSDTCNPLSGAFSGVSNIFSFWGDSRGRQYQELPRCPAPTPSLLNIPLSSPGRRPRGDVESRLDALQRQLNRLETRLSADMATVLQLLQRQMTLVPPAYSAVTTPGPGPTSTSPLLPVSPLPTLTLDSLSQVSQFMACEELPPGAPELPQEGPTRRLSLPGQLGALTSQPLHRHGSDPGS

| SMILES | hERG current change (%, negative = inhibition) at 1uM [%] |
| --- | --- |
| CCOc1cc(CNCCc2c[nH]c3ccccc23)cc(Cl)c1OC.Cl | 11.5 |
| Cc1ccc(/C=N\NC(=O)Cn2c(C)nc3ccccc32)o1 | 2.3 |
| Cc1cc(C)nc(NS(=O)(=O)c2ccc(NC(=O)CCCN3C(=O)c4ccccc4C3=O)cc2)n1 | 6.57 |
| N#CC(=C1SC=CS1)c1nc(-c2ccccc2)cs1 | 14.9 |
| O=C(Nn1cnc2ccccc2c1=O)c1ccc(F)cc1Cl | 9.99 |
| Cc1cc(C)n2nc(SCc3nnc(SCc4ccccc4)s3)nc2n1 | 0.641 |
| O=C1N(Cc2cccc(Cl)c2)C[C@@H]2C[C@@H](c3cccn3-c3nccs3)N3CCC[C@@]123 | -19.2 |
| COc1ccc2cc3cc(C(=O)N4CCCC(C)C4)oc3nc2c1 (centres unmarked) | 9.69 |
| COc1cccc(-c2sc3ccc(OC)cc3c2-c2cc(F)cc(OC)c2)c1 | 12.4 |
| CC(=O)Nc1ccc(C(=O)COC(=O)C2CCCCC2)c(F)c1 | 14.7 |
| COc1ccc(NS(=O)(=O)c2ccc3c(c2)NC(=O)CC(=O)N3)cc1OC | 19.5 |
| Cc1nn(CCCC(=O)N2CCc3ccccc3C2)c(=O)c2cc3sccc3n12 | -6.21 |
| NC(=O)[C@@H]1CCCN1C(=O)c1ccc2nc(Cc3cccc(Cl)c3)oc2c1 | 9.36 |
| Nc1n[nH]c(N)c1N=Nc1ccccc1F | 9.67 |
| CN(C)/C=C1/Nc2ccccc2C1=O | 12.6 |
| CC1CCN(C2=C(NS(=O)(=O)c3ccc(Br)cc3)C(=O)c3ccccc3C2=O)CC1 | 10.2 |
| O=C1CC(C(=O)NCc2ccccc2)N=C(N2CCCCC2)N1 (centres unmarked) | 1.24 |
| CN1CCN(c2ccc(S(=O)(=O)N3CCCCC3)cn2)CC1 | 2.76 |
| O=C(O)CCc1ccc(-c2ccccc2)n1CC(=O)O | 11.5 |

| SMILES | hERG current change (%, negative = inhibition) at 1uM [%] |
| --- | --- |
| CCOc1ccc(-c2c(C)n([O-])c3c([n+]2=O)CCCC3)cc1 | 2.32 |
| O=C(CSc1nccn(-c2ccc(Br)cc2)c1=O)Nc1ccccc1F | 14.6 |
| N#C/C(=C\c1cc([N+](=O)[O-])c(N2CCCCC2)cc1N1CCCCC1)c1nn(-c2ccccc2)c(N)c1C#N | 9.31 |
| CC/C(=N\NC(=O)c1ccoc1C)c1ccc(C)o1 | 9.78 |
| Cc1ccccc1-n1c(O)c(C(c2ccncc2)c2c(O)n(-c3ccccc3C)c(=O)[nH]c2=O)c(=O)[nH]c1=O | 10.7 |
| N#CCSc1nc2c(c(=O)n1Cc1ccco1)C1(CCCC1)Cc1ccccc1-2 | 17.6 |
| COc1ccc(/C=C(\NC(=O)c2ccc([N+](=O)[O-])cc2)C(=O)NCCCn2ccnc2)cc1 | -14.4 |
| COc1cc2c(cc1OC)CN(C(=O)c1ccc(S(=O)(=O)N3CCCC3)cc1)CC2 | 12.2 |
| Cc1ccc(C)c(NC(=S)NCC(c2ccccc2)N(C)C)c1 (centres unmarked) | -1.39 |
| COc1ccccc1CN1CCCCC1C(=O)O (centres unmarked) | -0.838 |
| O=C1[C@@H]2Cc3c([nH]c4ccccc34)CN2C(=O)CN1CCCO | 15.4 |
| Clc1ccc(C(c2ccccc2)c2ncc[nH]2)cc1 (centres unmarked) | 11.2 |
| Cl.OC(COc1cccc(OCC(O)CN2CCOCC2)c1)CN1CCOCC1 (centres unmarked) | 4.98 |
| COc1cc(/C=C(\C#N)C(=O)c2ccc(O)c(O)c2)cc(I)c1O | 13.3 |
| Cc1nc(CNC(=O)c2cc(COc3ccc(F)cc3Cl)on2)cs1 | 3.49 |
| C1=Nc2c(Nc3ccccc3)ncnc2Oc2ccccc21 | 4.25 |
| CCN(CC)c1ccc(/C=C2\C(=O)NC(=S)N(c3ccc(OC)cc3OC)C2=O)o1 | 4.08 |
| Cc1ccc(CN2CCS(=O)(=O)CC2)o1 | 9.98 |
| CCOn1c(=O)c(=O)n(OCc2ccccc2)c2ccccc21 | 1.96 |

| SMILES | hERG current change (%, negative = inhibition) at 1uM [%] |
| --- | --- |
| Cc1cccc(OCCNc2ccc([N+](=O)[O-])cn2)c1 | 5.54 |
| Cc1noc(C)c1COc1ccc(C(=O)N2CCN(c3ccccc3F)CC2)cc1 | 0.836 |
| O=C(NC(=S)Nc1ccc(N2CCOCC2)cc1)c1ccc2c(c1)OCCO2 | 9.38 |
| Cc1ccc(Nc2nc(-c3ccccc3)c(CC(=O)O)s2)cc1 | 21 |
| Cc1ccc2[nH]c(C(=O)O)c(NC(=O)[C@@H]3C[C@@H]3c3ccccc3)c2c1 | 7.56 |
| COc1cccc(N(C(=O)CNC(=O)c2ccco2)C(C(=O)NC2CCCCC2)c2cccnc2)c1 (centres unmarked) | 13.7 |
| CCn1c(C)nc2cc(C(=O)NNC(=O)CCC3CCCC3)ccc21 | 13.9 |
| CCC(=O)N1CCc2cc(S(=O)(=O)NC(C(=O)NC3CCCc4ccccc43)C(C)C)ccc21 (centres unmarked) | 4.53 |
| O=C(N1CCCCCC1)N1CCN(S(=O)(=O)N2CCOCC2)CC1 | 0.917 |
| CCN(C(=O)COc1ccccc1)c1nnc(-c2cccnc2)s1 | 11 |
| Br.CCCCN1C2=NCCCN2c2cc(C)c(C)cc21 | -39.2 |
| CN1C(=O)/C(=C/c2cc3c(cc2Br)OCO3)NC1=S | 4.81 |
| O=C(c1ccccc1F)N1CCC(O)(c2cccnc2)CC1 | 7.28 |
| O=C1NC(c2ccccc2)=C(c2ccc3ccccc3n2)C(c2ccccc2)N1 (centres unmarked) | 2.29 |
| CCCN1C(=O)/C(=C/c2ccc(C)s2)NC1=S | 12.5 |
| Cc1ccc(CCNC(=O)C2CCCN(c3nc4ccccc4o3)C2)cc1 (centres unmarked) | -3.2 |
| NC(=O)c1ccc(Oc2ccc(Cl)c3ccccc23)c([N+](=O)[O-])c1 | 12.3 |
| O=S(=O)(/N=S1/CC=CCN1S(=O)(=O)c1ccccc1)c1ccccc1 (centres unmarked) | 13.5 |

— publication PMC4336329 (PLoS ONE, 2015)
